In all, about 45,000 compounds went through this assay and about 65 (0.1%) were called active. Calls come from the whole dose curve; as a rule, active = well fitted activation curve with a large enough effect; inconclusive = small, poorly fitted or top-dose-only effect; inactive = no such curve, though single readings can be large or run the other way. Some of the results follow.
target: Galactocerebrosidase (Homo sapiens) (UniProt P54803); experiment: A Novel Cell-Based Assay to Identify Small Molecules for B -Galactocerebrosidase; conditions: 145M-Twi-hGALC-G270D cells (Twitcher mouse brain line with human GALC G270D), HMU-beta-Gal fluorescence, 48 h; series mostly up to 57.5 µM; activation: at the top concentration; note: 0% is about no effect; nearly all actives have a fitted effect of over 65% in size
Chain of UniProt P54803 (P54803 whole entry, looked up): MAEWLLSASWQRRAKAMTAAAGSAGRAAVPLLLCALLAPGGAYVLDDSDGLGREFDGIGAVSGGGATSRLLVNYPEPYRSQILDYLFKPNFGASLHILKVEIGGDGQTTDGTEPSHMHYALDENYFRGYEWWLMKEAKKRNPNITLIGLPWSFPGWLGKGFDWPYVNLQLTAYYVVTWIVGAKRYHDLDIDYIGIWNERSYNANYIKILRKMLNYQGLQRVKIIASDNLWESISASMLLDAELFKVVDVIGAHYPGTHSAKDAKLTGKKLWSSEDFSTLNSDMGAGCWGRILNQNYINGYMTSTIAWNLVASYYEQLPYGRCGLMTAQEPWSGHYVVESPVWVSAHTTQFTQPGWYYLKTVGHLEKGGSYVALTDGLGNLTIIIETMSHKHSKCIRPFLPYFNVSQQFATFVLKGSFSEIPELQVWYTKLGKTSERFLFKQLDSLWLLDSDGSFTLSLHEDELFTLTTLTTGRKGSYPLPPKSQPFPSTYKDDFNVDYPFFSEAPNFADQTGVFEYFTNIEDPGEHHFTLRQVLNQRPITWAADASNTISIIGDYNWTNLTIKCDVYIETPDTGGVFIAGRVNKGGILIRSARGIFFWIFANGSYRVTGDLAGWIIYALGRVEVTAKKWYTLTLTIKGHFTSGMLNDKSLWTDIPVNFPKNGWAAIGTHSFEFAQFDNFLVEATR
Outline: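 Mutant human GALC (G270D), stably expressed in a Twitcher mouse brain cell line lacking endogenous GALC, is measured in live-treated cells via 6-hexadecanoylamino-4-methylumbelliferyl-β-galactoside hydrolysis (0.1 mM final, pH 5.2) with fluorescent detection.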

activation, inactive:
CC(C)n1c(=N)c(C(=O)NCc2ccccc2)cc2c(=O)n3ccccc3nc21 -19.4%
COc1cc(NC(=O)c2cc(S(=O)(=O)N3CCc4ccccc43)cn2C)cc(OC)c1OC -12.6%
CC(=O)[C@H]1CC[C@H]2[C@@H]3C=CC4=CC(=O)CC[C@@]4(C)[C@@H]3CC[C@]12C -4.62%
Cc1ccc(C)c(CN2C(=O)c3ccccc3S(=O)(=O)c3ccc(C(=O)N4CCCCC4)cc32)c1 -6.09%
O=C(COc1ccccc1[N+](=O)[O-])N(Cc1ccco1)c1ccccn1 -16.6%
COc1cc2c(=O)n(CCc3ccccc3)c(=O)n(CC(=O)Nc3ccccc3)c2cc1OC -21.4%
COc1ccc(C)cc1NC(=O)N1CCCn2nc(C)cc21 -7.18%
O=C(C1CCC1)N1CCc2cc(S(=O)(=O)NCc3ccc(F)cc3)ccc21 -10.2%
CC(C)CC(=O)Nc1c(C(=O)N2CCN(c3ccccc3)CC2)oc2ccccc12 -7.67%
COc1ccc(C(=O)Cn2c(=O)c(-c3cc(C)ccc3NC(C)=O)nc3ccccc32)cc1 -1.17%
CC(=O)c1cc2c(cc1N/C(=N/S(=O)(=O)c1ccc(Br)cc1)c1ccccc1)OCO2 -15.7%
O=C(Cn1c(=O)n(CC2CCC(C(=O)NCCc3ccccc3)CC2)c(=O)c2ccccc21)Nc1cccc(F)c1 (configuration not stated) 2.9%
COc1ccc(C2C=C(c3ccccc3)Nc3nc(NS(=O)(=O)c4ccc(Cl)cc4)nn32)cc1 (configuration not stated) 0.542%
COC(=O)c1ccccc1NC(=O)N1CCc2c(sc3c2CCCC3)C1c1ccc(F)cc1 (configuration not stated) -22.9%
O=C(COc1ccccc1)NC1CC(=O)N(c2ccc3c(c2)OCCO3)C1 (configuration not stated) -10.8%
CCOc1ccccc1NC(=O)Cn1c(=O)n(-c2cccc(C)c2)c(=O)c2c1c1cc(OC)ccc1n2C 0.887%
Cc1ccc(C)c(N2CCN(C(=O)c3noc4c3CCCCC4)CC2)c1 -9.33%
CCOc1ccc(C(=O)c2cn(CC(=O)Nc3ccc(Cl)cc3)c3cc4c(cc3c2=O)OCCO4)cc1 -6.64%
Cc1ccccc1Cn1c(CN2CCCC(C)C2)nc2c1c(=O)n(C)c(=O)n2C (configuration not stated) -2.16%
Cc1ccc(-c2nc(CCNC(=O)C(=O)Nc3ccc(C)cc3C)cs2)cc1 -0.592%
Cc1ccc(C)c(-c2[nH]c3c(c2-c2c(-n4cccc4)n(C)c(=O)[nH]c2=O)c(=O)[nH]c(=O)n3C)c1 -8.39%
CCN(CC)S(=O)(=O)c1ccc2c(c1)N(CC(=O)N1CCN(c3ccc(F)cc3)CC1)C(=O)CO2 -22.3%
CCOc1ccc(CCNC(=O)Cn2nc(-c3ccc(C)cc3)ccc2=O)cc1OCC -21.6%
COc1ccc(CNC(=O)c2ccc(CS(=O)(=O)c3ccccc3OC)o2)cc1 -5.76%
O=C(CNS(=O)(=O)c1cccs1)N1CCN(c2cccc(C(F)(F)F)c2)CC1 -22%
CCc1ccccc1NC(=O)C1=C(C)C(=O)OC12CCCCCC2 -10.4%
COc1cc(CN2CCN(S(=O)(=O)c3ccccc3)CC2)cc(OC)c1O -15.5%
Fc1ccc(-c2noc3ncnc(NC4CCCCC4)c23)cc1 -28.5%
CC[C@]1(O)C[C@H]2CN(CCc3c([nH]c4ccccc34)[C@@](C(=O)OC)(c3cc4c(cc3OC)N(C=O)[C@H]3[C@@](O)(C(=O)OC)[C@H](OC(C)=O)[C@]5(CC)C=CCN6CC[C@]43[C@@H]65)C2)C1 -10.6%
COc1ccc(OC)c(NC(=O)c2cccn2-c2nnc(N3CCCCC3)s2)c1 -20.1%
COc1ccc(CNC(=O)c2cc3c(=O)oc4ccc(C)cc4c3s2)c(OC)c1 -19.2%
Cc1cccc(NC(=O)C(=O)NCC(c2ccc3c(c2)OCO3)N2CCN(C)CC2)c1C (configuration not stated) -7.86%
COc1cc(NC(=O)CSc2ncc(S(=O)(=O)c3ccc(Br)cc3)c(=O)[nH]2)cc(OC)c1 -6.79%
Cc1c2cnn(CC(=O)NCCc3ccccc3)c(=O)c2c(C)n1Cc1ccccc1 -10.5%
COc1ccc(CNC(=O)c2ccc(NC(=O)N3CCCCc4ccccc43)cc2)cc1 -8.16%
CCCCOc1cccc(C(=O)N(Cc2sccc2C)C2CCS(=O)(=O)C2)c1 (configuration not stated) 1.79%
CCN(CC)S(=O)(=O)c1ccc2oc(C(=O)N(C)Cc3ccccc3)c(C)c2c1 -13.2%
COc1cc(C2CC(=O)Nc3cc4c(cc32)OCCO4)cc(Br)c1OC (configuration not stated) -22.7%
Cc1cccc(N2CCN(C(=O)CCCCn3c(=O)[nH]c4ccsc4c3=O)CC2)c1C -6.62%
COc1ccc(Cn2c(=O)c3oc4ccccc4c3n(Cc3ccc(F)cc3)c2=O)cc1 -3.45%
Cc1cc(Nc2cccc(Cl)c2)nc2ccc(NC(=O)Cc3cccc(C(F)(F)F)c3)cc12 -13%
Cn1ccc2c(OCC(=O)Nc3cc(C(F)(F)F)ccc3Cl)cccc2c1=O -0.309%
COc1ccc(C2C=C(c3ccccc3)Nc3nc(NC(=O)/C=C/c4ccccc4)nn32)cc1 (configuration not stated) -10.9%
CCOc1ccccc1NC(=O)CCn1nc(C)c(S(=O)(=O)N2CCCCC2)c1C -0.885%
O=C(NCCCc1ccccc1)C1CCN(C(=O)N2CCOc3ccc(Cl)cc32)CC1 -12.5%
CCc1ccc(NC(=O)CSC2=Nc3ccccc3C3=NC(CC(=O)NCc4ccccc4)C(=O)N23)cc1 (configuration not stated) -8.68%
O=C(Cn1ncc2c3ccccc3n(Cc3cccc(Cl)c3)c2c1=O)NC1CCCCCC1 -15.6%
COC(=O)CCN(c1ccccc1)S(=O)(=O)c1cc(-c2cc(C)no2)ccc1OC -9.89%
CCN1CCSc2ccc(C(=O)NCc3ccc(OC)cc3)cc21 -19.2%
CCN(CC)S(=O)(=O)c1ccc2c(c1)c(=O)c(C(=O)N1CCN(c3ccc(F)cc3)CC1)cn2C -11.3%
COc1cccc(NC(=O)Cn2c(=O)n(-c3ccc(C)cc3)c(=O)c3ccc(C(=O)NCc4ccco4)cc32)c1 -4.89%
Cc1c(C(=O)Nc2cccc(Cl)c2)oc2ccc(S(=O)(=O)N(C)C3CCCCC3)cc12 -13.2%
CCOc1ccccc1N(CC(=O)N1CCc2ccccc2C1)S(=O)(=O)c1ccccc1 -1.04%
Cc1nc2ncnn2c(C)c1CCC(=O)NCc1ccccc1Cl -9.82%
O=C1CCSC2(C(=O)N(Cc3ccc(F)cc3)c3ccccc32)N1c1ccc(F)c(F)c1 (configuration not stated) 3.02%
CCc1ccc(-c2nc(CS(=O)CC(=O)NCCc3ccc(Cl)cc3)c(C)o2)cc1 (configuration not stated) -11.2%
CCOc1ccc2oc(=O)cc(CN3CCN(C(=O)c4ccc(F)cc4)CC3)c2c1 -13.3%
